Laboratory results: the supplement of paper PMC6531468
The list shows a part of the results. Read counts after selection give these values, which scatter widely. Each score is taken over the longer molecules that contain the sequence shown.

What follows are sequences tested on IMP3 KH3-4 (assay: 6-mer SELEX enrichment z-score vs GST control; IMP3 is the RNA-binding protein IGF2BP3; higher = more enriched by binding). Details: construct: KH3-4 (377-579); SELEX round: R4.
Protocol: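 SELEX-seq with GST-tagged IMP3 KH3-4 (Pro377-Lys579) and an N40 RNA pool, round 4. 6-mer z-score of sequence-tag enrichment normalised to the corresponding GST SELEX round; RNA k-mers written as DNA (T for U).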

Chain of IMP3 KH3-4 (chain, as listed by the source): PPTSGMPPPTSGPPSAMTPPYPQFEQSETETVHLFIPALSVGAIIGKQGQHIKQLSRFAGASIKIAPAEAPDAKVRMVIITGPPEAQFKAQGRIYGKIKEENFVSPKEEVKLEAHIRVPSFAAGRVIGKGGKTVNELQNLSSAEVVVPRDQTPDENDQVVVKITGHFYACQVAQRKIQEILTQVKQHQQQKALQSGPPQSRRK

Sequence	6-mer SELEX enrichment z-score
TATGGC	1.02
ACCTCC	-1.43
GGGGCG	1.35
TCAAAA	-0.825
TCTAGG	0.053
ATTTTT	2.05
GTAGGA	-0.243
ACTTAA	1.13
GCGAGG	-0.125
AGGGGT	0.784
TCGTCT	0.084
AAAGGA	1.09
TGGGTT	0.451
CGTGAA	-0.299
ACGCAG	-0.164
TTAAGT	0.668
CACGAC	-1.27
GTAGAA	-0.488
GACACA	0.574
GGACCA	-0.568

Sequence	6-mer SELEX enrichment z-score
CGTATG	-0.61
CAGCAA	-0.063
TACAAG	0.535
GCTAAA	0.003
AACCGC	-1.04
GCTGAG	-0.568
TGATCG	-0.05
CGCCCC	-1.09
CAAACG	-1.88
GGTTGT	0.246
TTGTAC	-0.113
AGATCT	0.066
TCGCTG	-0.106
ACCAAG	-1.5
ATTGTT	0.674
GAACTC	-1.09
TCGCTT	0.333
GGACTT	0.043
TGTTTG	0.247
CTTTGT	0.2
